In PMC4336329 (PLoS ONE, 2015):
Out of some 310,000 compounds screened, about 2,200 (0.71%) showed an effect of 50% or more. Effects have a minus sign here. Some of the results follow.

What follows are compounds tested against human ether-à-go-go-related gene (hERG) potassium channel (human, UniProt Q12809) (assay: primary screen, population patch clamp on CHO cells stably expressing hERG).
Sequence of human ether-à-go-go-related gene (hERG) potassium channel (Q12809 whole entry, looked up): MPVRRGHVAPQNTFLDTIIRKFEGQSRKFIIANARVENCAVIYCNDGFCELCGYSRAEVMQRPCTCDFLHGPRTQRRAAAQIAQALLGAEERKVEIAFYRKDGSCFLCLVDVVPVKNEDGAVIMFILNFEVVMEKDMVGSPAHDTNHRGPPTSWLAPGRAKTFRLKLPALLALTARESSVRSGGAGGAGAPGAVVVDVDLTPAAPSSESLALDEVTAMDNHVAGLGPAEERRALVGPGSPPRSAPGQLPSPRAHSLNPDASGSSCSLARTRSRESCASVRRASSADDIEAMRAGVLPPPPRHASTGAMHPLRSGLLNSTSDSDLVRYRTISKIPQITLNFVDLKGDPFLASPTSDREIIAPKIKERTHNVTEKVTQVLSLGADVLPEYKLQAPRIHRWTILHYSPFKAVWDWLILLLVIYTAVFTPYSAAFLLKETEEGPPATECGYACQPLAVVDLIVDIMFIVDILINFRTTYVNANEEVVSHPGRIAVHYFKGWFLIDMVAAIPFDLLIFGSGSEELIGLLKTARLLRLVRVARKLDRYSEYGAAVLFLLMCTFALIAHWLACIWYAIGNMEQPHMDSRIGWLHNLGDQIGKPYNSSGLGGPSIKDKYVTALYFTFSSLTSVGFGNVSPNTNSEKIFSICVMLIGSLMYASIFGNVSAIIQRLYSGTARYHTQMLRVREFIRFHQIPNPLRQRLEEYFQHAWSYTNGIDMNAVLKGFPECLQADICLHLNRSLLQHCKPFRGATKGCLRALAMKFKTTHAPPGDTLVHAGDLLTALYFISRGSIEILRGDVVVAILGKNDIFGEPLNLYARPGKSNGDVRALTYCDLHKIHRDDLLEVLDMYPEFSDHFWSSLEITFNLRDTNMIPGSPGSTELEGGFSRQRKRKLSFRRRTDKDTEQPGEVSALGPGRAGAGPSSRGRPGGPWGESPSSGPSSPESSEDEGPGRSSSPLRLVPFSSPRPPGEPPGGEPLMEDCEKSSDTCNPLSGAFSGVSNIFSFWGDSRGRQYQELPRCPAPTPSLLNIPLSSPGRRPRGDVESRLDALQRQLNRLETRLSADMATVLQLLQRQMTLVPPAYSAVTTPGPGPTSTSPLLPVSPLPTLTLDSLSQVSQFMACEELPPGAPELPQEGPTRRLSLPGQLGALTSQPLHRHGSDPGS
With `O=C(NC1CCCCC1)c1ccc(Br)o1` the “hERG current change (%, negative = inhibition) at 1uM” value was 15.7%.
For `Cn1c(=O)n(Cc2ccccc2F)c(=O)c2c1nc1n2CCN1Cc1ccco1`, the “hERG current change (%, negative = inhibition) at 1uM” value was 2.75%.
In the case of `O=C(Nc1ccccc1)C1=C[C@H](c2ccc3c(c2)OCO3)C[C@H](OCCCCO)O1`, the “hERG current change (%, negative = inhibition) at 1uM” value is reported as -5.43%.
In the case of `Nc1ccc2nc(-c3ccccc3)[nH]c2c1`, the “hERG current change (%, negative = inhibition) at 1uM” value is reported as 10.4%.
With `CC1=NN(C(=O)COc2ccc(C)c(C)c2)C(O)(c2ccccc2)C1` (centres unmarked) the “hERG current change (%, negative = inhibition) at 1uM” value was 4.01%.
In the case of `Cc1cccc(NC(=O)CSc2nnc(CCCCCNC(=O)OC(C)(C)C)o2)c1C`, the “hERG current change (%, negative = inhibition) at 1uM” value is reported as 1.55%.
`CCc1ccc(NC(=O)CC2C(=O)N(c3ccc(C)cc3)C(=O)N2CCc2ccncc2)cc1` (centres unmarked) was tested, and the “hERG current change (%, negative = inhibition) at 1uM” value was 0.623%.
`Nc1nonc1C(=O)NCCNc1ccc([N+](=O)[O-])cc1` was tested, and the “hERG current change (%, negative = inhibition) at 1uM” value was 11.9%.
With `O=C(c1cc(COc2cccc(C(F)(F)F)c2)on1)N1CCSCC1` the “hERG current change (%, negative = inhibition) at 1uM” value was 7.57%.
With `Nc1nc(SCC(=O)Nc2cc(-c3ccccc3)nn2-c2ccccc2)n[nH]1` the “hERG current change (%, negative = inhibition) at 1uM” value was 11.7%.
For `CCOc1ccc(-c2ccc(SCC(=O)N3CCOCC3)nn2)cc1`, the “hERG current change (%, negative = inhibition) at 1uM” value was -4.36%.
With `Cc1ccc(CNc2nnnn2C)cc1` the “hERG current change (%, negative = inhibition) at 1uM” value was 9.85%.
With `O=C(Nc1cc(C(F)(F)F)ccc1N1CCOCC1)c1cccs1` the “hERG current change (%, negative = inhibition) at 1uM” value was 12.6%.
With `CCn1c(=O)c2cc(C(=O)NCCC(C)C)sc2c2ccccc21` the “hERG current change (%, negative = inhibition) at 1uM” value was 19.8%.
For `Cc1noc(C)c1CSc1cc(C)c2ccccc2n1`, the “hERG current change (%, negative = inhibition) at 1uM” value was 10.4%.
`CN(C)S(=O)(=O)c1cccc(NC(=O)c2cc3c(=O)n4ccccc4nc3s2)c1` was tested, and the “hERG current change (%, negative = inhibition) at 1uM” value was 8.77%.
In the case of `COc1cc2c(cc1Cl)/C(=C\CCN(C)C)c1ccccc1S2.O=S(=O)(O)O`, the “hERG current change (%, negative = inhibition) at 1uM” value is reported as 7.88%.
With `O=c1c2ccccc2cnn1CCOc1cccc(Br)c1` the “hERG current change (%, negative = inhibition) at 1uM” value was 13.5%.
With `Cc1cc([N+](=O)[O-])ccc1NCc1cccc([N+](=O)[O-])c1` the “hERG current change (%, negative = inhibition) at 1uM” value was -56.6%.
In the case of `COc1cc(C(=O)NCC(=O)N/N=C(C)\C=C\c2ccccc2)cc(OC)c1OC`, the “hERG current change (%, negative = inhibition) at 1uM” value is reported as 17.5%.
In the case of `Cc1ccn2cc(-c3cccc([N+](=O)[O-])c3)nc2c1`, the “hERG current change (%, negative = inhibition) at 1uM” value is reported as 4.2%.
`Cc1ccc(C(=O)NCCNc2ccc([N+](=O)[O-])cc2C(F)(F)F)cc1` was tested, and the “hERG current change (%, negative = inhibition) at 1uM” value was 7.09%.
For `CC1CN(C(=O)CCNC(=O)c2ccc(Cl)cc2)CC(C)O1` (centres unmarked), the “hERG current change (%, negative = inhibition) at 1uM” value was 10.4%.
`O=C(O)c1ccc(O)c(N2C(=O)Nc3ccccc3N2O)c1` was tested, and the “hERG current change (%, negative = inhibition) at 1uM” value was 11.3%.
With `CC1CCCN(C(=O)CNS(=O)(=O)c2cccs2)C1` (centres unmarked) the “hERG current change (%, negative = inhibition) at 1uM” value was 7.97%.
`Cc1nnc2sc(-c3cccc4ccccc34)nn12` was tested, and the “hERG current change (%, negative = inhibition) at 1uM” value was -4.8%.
With `O=C(NCC(O)CN1CCOCC1)c1ccc([N+](=O)[O-])cc1` (centres unmarked) the “hERG current change (%, negative = inhibition) at 1uM” value was 12.7%.
In the case of `Cc1ccc(-c2cc(=O)[nH]c3ccccc23)cc1`, the “hERG current change (%, negative = inhibition) at 1uM” value is reported as 3.95%.
With `CCN(CC(=O)O)S(=O)(=O)c1cc(Cl)ccc1Cl` the “hERG current change (%, negative = inhibition) at 1uM” value was 9.87%.
For `O=C(CCN1CCN(CCO)CC1)Nc1ccccc1.O=C(O)C(=O)O`, the “hERG current change (%, negative = inhibition) at 1uM” value was 14.3%.
In the case of `O=S1(=O)N=C(Nc2nncs2)c2ccccc21`, the “hERG current change (%, negative = inhibition) at 1uM” value is reported as 18%.
With `CN(C)CCN(C)Cc1c2ccccc2c(CN(C)CCN(C)C)c2ccccc12` the “hERG current change (%, negative = inhibition) at 1uM” value was 6.77%.
For `O=C(NC(Cc1ccccc1)C(=O)O)/C(=C/c1ccccc1)NC(=O)c1cccc(Br)c1` (centres unmarked), the “hERG current change (%, negative = inhibition) at 1uM” value was 7.54%.
`CC(C)CNC(=O)c1ccccc1SCC(=O)NC12CC3CC(CC(C3)C1)C2` was tested, and the “hERG current change (%, negative = inhibition) at 1uM” value was 3.63%.
For `CCN(C(=O)COC(=O)c1cc(-c2ccccc2)nc2c1c(C)nn2-c1ccc(C)cc1)C1CCS(=O)(=O)C1` (centres unmarked), the “hERG current change (%, negative = inhibition) at 1uM” value was 2.31%.
With `CSc1nc2ccc(NC(=O)c3ccc(F)c(F)c3)cc2s1` the “hERG current change (%, negative = inhibition) at 1uM” value was 13.2%.
With `O=C1c2cccnc2C(O)N1C1CCCCC1` (centres unmarked) the “hERG current change (%, negative = inhibition) at 1uM” value was 8.36%.
In the case of `FC(F)(F)c1cccc(Cn2nnnc2-c2cccc(C(F)(F)F)c2)c1`, the “hERG current change (%, negative = inhibition) at 1uM” value is reported as -0.439%.
In the case of `CCN(CC)CCNC(=O)c1c(C)n(-c2ccccc2)c2cc(Br)c(OC)cc12`, the “hERG current change (%, negative = inhibition) at 1uM” value is reported as -6.93%.
With `COC(=O)C(Cc1ccccc1)NC(=O)c1cccc(S(=O)(=O)N(C)C)c1` (centres unmarked) the “hERG current change (%, negative = inhibition) at 1uM” value was 4.5%.
`Cc1cc2nc(N3CCN(C(=O)c4ccco4)CC3)sc2cc1C` was tested, and the “hERG current change (%, negative = inhibition) at 1uM” value was 20.2%.
`CN(C(=O)CSc1ncnc2sccc12)c1c(N)n(Cc2ccccc2)c(=O)[nH]c1=O` was tested, and the “hERG current change (%, negative = inhibition) at 1uM” value was 11.2%.
In the case of `COc1ccc(OCC(=O)NNC(=O)c2cccc(O)c2)cc1`, the “hERG current change (%, negative = inhibition) at 1uM” value is reported as 13%.
For `O=C(CSc1nccc(=O)[nH]1)Nc1cccc(S(=O)(=O)N2CCOCC2)c1`, the “hERG current change (%, negative = inhibition) at 1uM” value was 11.4%.
In the case of `Cc1cc(NC(=O)CSc2nnc(-c3cccnc3)n2C)no1`, the “hERG current change (%, negative = inhibition) at 1uM” value is reported as 14.4%.
`Cc1nn(-c2ccccc2)c2ncc(C(=O)c3cc(Cl)ccc3O)cc12` was tested, and the “hERG current change (%, negative = inhibition) at 1uM” value was 2.27%.
In the case of `CC1CN(c2ccccc2)NC1=O` (centres unmarked), the “hERG current change (%, negative = inhibition) at 1uM” value is reported as 3.87%.
With `O=C(CCN1C(=O)C2CC=C(Cl)CC2C1=O)NCc1ccccc1` (centres unmarked) the “hERG current change (%, negative = inhibition) at 1uM” value was 4.8%.
In the case of `COc1ccc2nc(NC(=O)CSc3nc(SC)ns3)sc2c1`, the “hERG current change (%, negative = inhibition) at 1uM” value is reported as 6.52%.
For `COc1cccc(C2C(C#N)=C(N)N(N(C)C)C3=C2C(=O)CC(C)(C)C3)c1` (centres unmarked), the “hERG current change (%, negative = inhibition) at 1uM” value was 16.6%.
With `COc1cccc(-c2nc(CS(=O)(=O)CC(=O)NCCc3ccc(OC)cc3OC)c(C)o2)c1` the “hERG current change (%, negative = inhibition) at 1uM” value was 5.41%.
With `Cc1cc(C(=O)NCc2ccc(S(N)(=O)=O)cc2)ccc1[N+](=O)[O-]` the “hERG current change (%, negative = inhibition) at 1uM” value was 14.3%.
With `COc1ccc(NC(=O)CN(C)C(=O)c2cccc(S(=O)(=O)Nc3ccc(F)cc3)c2)cc1` the “hERG current change (%, negative = inhibition) at 1uM” value was 3.6%.
With `Cc1cc(C)cc(N2C(=O)/C(=C\c3ccc(N4CCN(C)CC4)o3)C(=O)NC2=S)c1` the “hERG current change (%, negative = inhibition) at 1uM” value was 6.68%.
For `COCCCN1CN(S(=O)(=O)c2ccc(Cl)cc2)c2nc3ccccc3nc21`, the “hERG current change (%, negative = inhibition) at 1uM” value was 4.5%.
With `CN1CCN(C(=O)COc2ccc(-c3nc4ccccc4s3)cc2)CC1` the “hERG current change (%, negative = inhibition) at 1uM” value was 8.33%.
